Source: the supplement of paper PMC9446081
Hit rate of the full screen: of about 39,000 compounds, about 220 (0.56%) showed activity. The list shows a part of the results.

tested on: Escherichia coli K-12 BW25113; assay: relative growth (OD600 normalised to plate interquartile mean) (fraction); higher = less growth inhibition, active = 0.2 or less; conditions: 50 µM; LB; incubation time: overnight (16-24 h)
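Further: static incubation at 37 °C against the wild-type strain, values averaged over two biological replicates.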

SMILES | relative growth
C[C@H]1CN([C@@H](C)CO)C(=O)c2cc(NC(=O)Cc3cn(C)c4ccccc34)ccc2O[C@@H]1CN(C)Cc1ccc(-c2ccccc2)cc1 | inactive: 1
Cc1ccc(S(=O)(=O)N(C)C[C@@H]2OCCCC[C@@H](C)Oc3ccc(NS(=O)(=O)c4ccc(F)cc4)cc3C(=O)N([C@H](C)CO)C[C@@H]2C)cc1 | inactive: 1.01
C[C@@H]1CN([C@@H](C)CO)S(=O)(=O)c2ccc(C#Cc3ccccc3F)cc2O[C@@H]1CN(C)C(=O)Cc1ccncc1 | inactive: 1.02
N#Cc1ccc(O)c(O)c1 | inactive: 0.967
C[C@@H]1CCCCO[C@H](CN(C)Cc2ccccc2)[C@H](C)CN([C@@H](C)CO)C(=O)c2cc(NC(=O)C3CCCCC3)ccc2O1 | inactive: 1
C[C@H]1CN([C@@H](C)CO)C(=O)Cc2cc(NS(C)(=O)=O)ccc2O[C@@H]1CN(C)C(=O)Nc1ccccc1 | inactive: 0.979
COc1ccc(CN(C)C[C@@H]2Oc3c(NC(=O)c4ccc(-c5nccs5)cc4)cccc3C(=O)N([C@H](C)CO)C[C@@H]2C)cc1 | inactive: 0.992
COc1ccc(NC(=O)Nc2ccc3c(c2)C(=O)N([C@H](C)CO)C[C@@H](C)[C@H](CN(C)Cc2ccncc2)OCCCC[C@H](C)O3)cc1 | inactive: 1.03
Cc1noc(C)c1S(=O)(=O)Nc1ccc2c(c1)CC(=O)N([C@@H](C)CO)C[C@@H](C)[C@H](CN(C)C(=O)NC(C)C)O2 | inactive: 0.985
C[C@H]1CN([C@@H](C)CO)C(=O)c2cccc(NC(=O)Nc3ccc(C(F)(F)F)cc3)c2O[C@@H]1CN(C)Cc1ccncc1 | inactive: 0.885
COCCN1C[C@H]2COC[C@@H](C(=O)N3CCCO3)[C@H]2C1 | inactive: 1
Cc1ccc(S(=O)(=O)N(C)C[C@@H]2OCCCC[C@H](C)Oc3ccc(NC(=O)Nc4ccc(C(F)(F)F)cc4)cc3C(=O)N([C@H](C)CO)C[C@@H]2C)cc1 | inactive: 0.991
C[C@@H]1CN([C@H](C)CO)C(=O)c2cc(NS(=O)(=O)c3cn(C)cn3)ccc2O[C@@H](C)CCCCO[C@H]1CN(C)S(=O)(=O)c1ccc(F)cc1 | inactive: 1
C[C@H](CO)N1C[C@H](C)[C@@H](CN(C)Cc2ccc(Oc3ccccc3)cc2)Oc2ccc(NC(=O)Nc3ccccc3)cc2CC1=O | inactive: 1.07
C[C@H]1CN([C@@H](C)CO)S(=O)(=O)c2ccc(C#Cc3ccc(F)cc3)cc2O[C@@H]1CN(C)C(=O)CN(C)C | inactive: 1.03
CS(=O)(=O)N1CCO[C@]2(COCCN(c3cncnc3)C2)C1 | inactive: 0.995
O=C(CCCCCC(=O)N/N=C/[C@H](O)[C@@H](O)[C@@H](O)[C@H](O)C(=O)O)NO | inactive: 1
C/C=C/c1ccc2c(c1)O[C@@H](CN(C)S(=O)(=O)c1ccccc1OC)[C@H](C)CN([C@@H](C)CO)S2(=O)=O | inactive: 1.02
C[C@H](CO)N1C[C@H](C)[C@@H](CN(C)C(=O)Nc2ccc(F)cc2)Oc2ccc(NS(=O)(=O)c3cn(C)cn3)cc2CC1=O | inactive: 0.991
COc1ccc(-c2cc(=O)c3c(O)cc(OC)cc3o2)cc1 | inactive: 1.07

SMILES | relative growth
Cc1noc(C)c1NC(=O)Nc1ccc2c(c1)C(=O)N([C@@H](C)CO)C[C@H](C)[C@@H](CN(C)Cc1ccc(Cl)c(Cl)c1)O2 | inactive: 0.997
C[C@@H]1CN([C@@H](C)CO)C(=O)Cc2cc(NC(=O)Nc3ccccc3)ccc2O[C@@H]1CN(C)Cc1ccc(Oc2ccccc2)cc1 | inactive: 0.967
O=C(C[C@H]1CC[C@H]2[C@@H](COC[C@@H](O)CN2C(=O)Nc2cccc(F)c2)O1)NCCCN1CCOCC1 | inactive: 0.94
C[C@H](CO)N1C[C@H](C)[C@@H](CN(C)C(=O)Nc2cccc3ccccc23)Oc2c(NS(=O)(=O)c3ccc(F)cc3)cccc2C1=O | inactive: 0.969
Cc1ccc(C(=N)NO)n1C | inactive: 0.849
Cc1noc(C)c1S(=O)(=O)N(C)C[C@H]1Oc2ccc(NC(=O)Cn3cnnn3)cc2CC(=O)N([C@@H](C)CO)C[C@H]1C | inactive: 1.01
Cc1ccc(S(=O)(=O)N(C)C[C@H]2OCCCC[C@H](C)Oc3ccc(NS(=O)(=O)c4ccc(Cl)cc4)cc3C(=O)N([C@H](C)CO)C[C@@H]2C)cc1 | inactive: 1.03
Cc1noc(C)c1NC(=O)Nc1cccc2c1O[C@@H](CN(C)Cc1ccc(Cl)c(Cl)c1)[C@H](C)CN([C@@H](C)CO)C2=O | inactive: 0.995
CO[C@@H]1CN(C)C(=O)c2ccc(NC(=O)C3CC3)cc2OC[C@@H](C)N(C(=O)C2CCOCC2)C[C@@H]1C | inactive: 1.01
O=C(C[C@H]1CC[C@H]2[C@@H](COC[C@H](O)CN2C(=O)Nc2cccc(F)c2)O1)NCCCN1CCOCC1 | inactive: 0.897
CC(C)NC(=O)Nc1ccc2c(c1)C(=O)N([C@H](C)CO)C[C@H](C)[C@@H](CN(C)S(=O)(=O)c1ccccc1)O2 | inactive: 0.997
C[C@@H]1CN([C@H](C)CO)C(=O)c2cc(NC(=O)Nc3ccc(F)cc3)ccc2O[C@H]1CN(C)CC1CCCCC1 | inactive: 0.992
COc1ccc(NC(=O)N(C)C[C@H]2Oc3ccc(NS(C)(=O)=O)cc3C(=O)N([C@@H](C)CO)C[C@@H]2C)cc1 | inactive: 0.982
C[C@H](CO)N1C[C@H](C)[C@H](CN(C)C(=O)C2CCCCC2)OCCCC[C@H](C)Oc2ccc(NC(=O)c3ccncc3)cc2C1=O | inactive: 1
CN1C(=O)c2cc(NC(=O)Cc3cccs3)ccc2OC[C@H]2O[C@@H](CC(=O)NCCc3ccncc3)CC[C@@H]21 | inactive: 0.996
C[C@H]1CN([C@@H](C)CO)C(=O)c2cc(NC(=O)Cc3ccccc3)ccc2O[C@H]1CN(C)S(=O)(=O)c1cccs1 | inactive: 1.02
C[C@@H]1CCCCO[C@@H](CN(C)Cc2ccc3c(c2)OCO3)[C@H](C)CN([C@H](C)CO)C(=O)c2cc(NC(=O)C3CCCCC3)ccc2O1 | inactive: 1.01
COCCNC(=O)C[C@H]1C[C@H]2c3cc(NC(=O)Nc4ccc(C(F)(F)F)cc4)ccc3O[C@H]2[C@@H](CO)O1 | inactive: 0.988
C[C@@H]1CCCCO[C@H](CN(C)S(=O)(=O)c2ccc(Cl)cc2)[C@@H](C)CN([C@@H](C)CO)C(=O)c2cc(NC(=O)Nc3cccc4ccccc34)ccc2O1 | inactive: 0.911
C[C@H]1CN([C@@H](C)CO)C(=O)Cc2cc(NC(=O)Nc3ccc4c(c3)OCO4)ccc2O[C@@H]1CN(C)Cc1ccc(Oc2ccccc2)cc1 | inactive: 1.02

SMILES | relative growth
COc1ccc(S(=O)(=O)Nc2ccc3c(c2)C(=O)N([C@H](C)CO)C[C@H](C)[C@H](CN(C)C(=O)c2ccccc2)OCCCC[C@H](C)O3)cc1 | inactive: 1.02
CCN(CC)CCNC(=O)c1ccc(NC(C)=O)cc1.Cl | inactive: 0.996
COC(=O)C[C@H]1CC[C@@H]2[C@H](COC[C@H](O)CN2S(=O)(=O)c2ccc(F)cc2)O1 | inactive: 1.01
C[C@@H]1CN([C@H](C)CO)C(=O)c2cccc(NC(=O)C3CCCCC3)c2O[C@H]1CN(C)Cc1ccc(Cl)c(Cl)c1 | inactive: 0.973
CC(C)[C@@H](O)C[C@@H](C)O[C@@H]1O[C@H](CO)[C@@H](O)[C@H](O)[C@H]1O | inactive: 0.982
COC(=O)c1cccc(NC(=N)N=C(N)N)c1 | inactive: 1.02
COc1ccc2nc3cc(Cl)ccc3c(Nc3cc(CN4CCCC4)c(O)c(CN4CCCC4)c3)c2n1.O=P(O)(O)O.O=P(O)(O)O.O=P(O)(O)O.O=P(O)(O)O | inactive: 1.08
COc1ccc(C#Cc2ccc([C@H]3[C@H]4CN(S(=O)(=O)c5cn(C)cn5)CCCCN4[C@H]3CO)cc2)cc1 | inactive: 1.02
C[C@H](CO)N1C[C@H](C)[C@@H](CN(C)S(=O)(=O)c2ccc(Cl)cc2)Oc2c(NC(=O)c3ccc(-c4nccs4)cc3)cccc2C1=O | inactive: 0.999
COCC#Cc1ccc2c(c1)O[C@H](CN(C)C(=O)C1CCOCC1)[C@@H](C)CN([C@@H](C)CO)S2(=O)=O | inactive: 1.01
C[C@@H]1CN([C@H](C)CO)C(=O)c2cc(NC(=O)Nc3ccc(F)cc3)ccc2O[C@@H](C)CCCCO[C@H]1CN(C)S(=O)(=O)c1ccc(Cl)cc1 | inactive: 1.01
C[C@H](CO)N1C[C@H](C)[C@H](CN(C)C(=O)c2cnccn2)Oc2cc(C#CCC3CCCC3)ccc2S1(=O)=O | inactive: 1
C[C@H]1CN([C@@H](C)CO)C(=O)Cc2cc(NC(=O)CCCN(C)C)ccc2O[C@@H]1CN(C)C(=O)NC1CCCCC1 | inactive: 0.993
C[C@@H]1CN([C@H](C)CO)C(=O)c2cc(NC(=O)Nc3cccc4ccccc34)ccc2O[C@@H]1CN(C)C(=O)Nc1ccccc1 | inactive: 1.04
Cc1cn2c(=O)c(C(=O)O)cnc2s1 | inactive: 0.979
OC[C@H]1O[C@H](O[C@H]2O[C@H](CO)[C@@H](O)[C@H](O)[C@H]2O)[C@H](O)[C@@H](O)[C@@H]1O | inactive: 0.986
OC[C@@H](O)[C@@H](O[C@@H]1O[C@H](CO)[C@@H](O)[C@H](O)[C@H]1O)[C@H](O)[C@@H](O)CO | inactive: 1.01
CN[C@@H]1[C@@H](O[C@H]2O[C@H](CO)[C@@H](N)[C@H](O)[C@H]2O)O[C@H]2C[C@@H](N)[C@H](O[C@H]3[C@H](O)[C@@H](O)[C@H](N)C[C@@H]3N)O[C@@H]2[C@@H]1O | inactive: 0.978
C[C@H]1CN([C@@H](C)CO)C(=O)c2cccc(NS(C)(=O)=O)c2O[C@H]1CN(C)C(=O)Nc1ccccc1 | inactive: 0.982
